# Data from PubChem BioAssay AID686978 (National Center for Advancing Translational Sciences (NCATS), 2013).
# Values joined by “and” are separate entries in the source; they are usually repeats but may differ in a detail not shown here. Equal entries are not always repeated. Screen size: about 420,000 compounds; about 64,000 (15%) were called active. The inconclusive results got no clear call from the source; some entries with a clear call stand among them for comparison. Calls come from the whole dose curve; as a rule, active = well fitted inhibition curve with a large enough effect; inconclusive = small, poorly fitted or top-dose-only effect; inactive = flat fitted curve, though single readings scatter. A potency beside an inconclusive call is a rough fit, not a confirmed value. Some compounds were tested as several samples or in several runs, with calls that do not always agree.
# Test: qHTS for Inhibitors of human tyrosyl-DNA phosphodiesterase 1 (TDP1): qHTS in cells in absence of CPT; note: nearly all actives have a fitted effect of over 55% in size
# Conditions: DT40 Tdp1-/- hTDP1 cells, no CPT, ATP luminescence, 48 h; activity change, negative = growth inhibition: at 46.2 µM (top of the series) unless noted
# In short: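 Growth of hTDP1-complemented DT40 Tdp1-knockout cells is measured by ATP luminescence after at least 48 hr compound exposure at 37 °C, with DMSO substituting for the 20 nM CPT used in the parallel screen.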
# % is set by controls: 0 for no effect and ±100 for the full control effect; potency is the fitted concentration of half-maximal effect; tags give direction and shape of the fitted curve.
SMILES,Potency,"activity change, negative = growth inhibition"
COc1cc2nc(N3CCOCC3)nc(NC3CCN(C)CC3)c2cc1OC,active: 15.8 µM,
CCOc1ccc(CNC(=O)CCCn2nc(C)c3c(C)n(-c4ccc(C)cc4)nc3c2=O)cc1,"inconclusive: 20.6 µM [inhibitor, single point] and inconclusive: 23.1 µM [inhibitor, partial curve]",
COc1ccc(CN2C(=O)C(CC(=O)NCC3CCCCC3)CC(C(=O)N(C(C)C)C(C)C)=C2C)cc1 (stereo not given),"inconclusive: 29.1 µM [inhibitor, single point]",
O=C(CSc1nnc2ccc(-c3ccccn3)nn12)Nc1cccc(F)c1,inactive,
COc1ccc(S(=O)(=O)Nc2cc(Cl)ccc2OC)cc1,active: 2.31 µM,
Cc1cc(C(=O)N2CCN(c3ccccc3)CC2)no1,inactive,
CCOC(=O)c1cc2c(=O)n3ccccc3nc2n(CC(C)C)c1=NC(=O)C(C)(C)Oc1ccc(Cl)cc1,"inconclusive: 6.51 µM [inhibitor, full curve]",
Cc1ccc(C(=O)N2CC(=O)Nc3ccc(Br)cc3C2c2ccc(F)cc2)cc1C (stereo not given),"inconclusive: 20.6 µM [inhibitor, single point]",
CCCn1c(O)c(C=Nc2ccccc2)sc1=S,"inconclusive: 23.1 µM [inhibitor, single point]",
COc1ccc(CNC(=O)CSc2n[nH]c(C)c2[N+](=O)[O-])cc1,inactive,
CCOn1c(=O)c(-c2cccc(Br)c2)[n+]([O-])c2ccccc21,inactive,
COc1ccccc1C(=O)COC(=O)Cc1n[nH]c(=O)c2ccccc12,inactive,
CCc1ccc(NC(=O)Cn2cnc3nc4c(cc3c2=O)CCCC4)cc1,"inconclusive: 6.51 µM [inhibitor, single point]",
COc1ccccc1C(=O)Nc1ccc2c(c1)nc1n2CCSC1,"inconclusive: 16.4 µM [inhibitor, single point]",
CCC(Cc1ccccc1)NS(=O)(=O)c1ccc2c(c1)NC(=O)C(C)S2 (stereo not given),"inconclusive: 23.1 µM [inhibitor, single point]",
CC1=CC(=NOC(=O)/C=C/c2ccccc2)C=C(C)C1=O,active: 13 µM,
COc1cc(/C=C/c2ccccc2)cc(OC)c1,inactive,
Cc1ccc(S(=O)(=O)N/N=C\c2cc3c(cc2[N+](=O)[O-])OCO3)cc1,active: 18.4 µM,
Cc1cc(NC(=O)c2ccc(C)s2)n(-c2ccccc2)n1,inactive,
CCN1CCN(C(=O)Cn2c(-c3cccs3)cc3cc(Cl)ccc32)CC1,"inconclusive: 18.4 µM [inhibitor, single point]",
CCCCCOc1ccc(NC(=O)C(=O)NCCCn2ccnc2)cc1,active: 18.4 µM,
Cc1ccc(C)c(N2CCN(C(=O)CCc3c(C)nc4c(c3C)c(=O)n(C)c(=O)n4C)CC2)c1,inactive,
O=[N+]([O-])c1ccc(/C=C/c2ccnc3ccccc23)c([N+](=O)[O-])c1,active: 20 µM,
COCCn1c(=O)[nH]c(=O)c2c(C(F)(F)F)cc(-c3cccs3)nc21,inactive,

SMILES,Potency,"activity change, negative = growth inhibition"
C=CCNC(=O)c1ccc(NC(=O)C2=CSCCO2)cc1,"inconclusive: 23.1 µM [inhibitor, single point]",
COc1ccc(C)cc1NC(=O)C1CCCN1S(=O)(=O)c1ccc2c(c1)CCC(=O)N2 (stereo not given),"inconclusive: 16.4 µM [inhibitor, single point]",
COc1ccc(/C=N/NC(=O)c2ccc(COc3cccc4cccnc34)cc2)cc1OC,inactive,
CC(C)(C)c1ccc(C(=O)N2CCN(c3nc4ccccc4o3)CC2)cc1,active: 6.51 µM,
COc1ccccc1Sc1ccccc1/C=N/NC(N)=O,"inconclusive: 0.58 µM [inhibitor, partial curve, poor fit]",
Cn1c(CCCOc2ccc(Cl)cc2Cl)nnc1SCC(=O)Nc1nccs1,"inconclusive: 18.4 µM [inhibitor, single point]",
CCCCNC(=O)C1c2ccccc2OCC(=O)N1CCOC (stereo not given),inactive,
CCCc1nc2sc(C(=O)OCC)c(N)c2c2c1COC(C)(C)C2,"inconclusive: 0.0092 µM [inhibitor, full curve, poor fit]",
C/C(=N\NC(=S)Nc1ccc(F)cc1)C1CC1,"inconclusive: 29.1 µM [inhibitor, single point]",
Cc1ccc(NC(=O)C2CCN(S(=O)(=O)c3cccs3)CC2)cc1C,"inconclusive: 32.6 µM [inhibitor, single point]",
CC1=C(C(=O)OC(C)(C)C)C(c2cccs2)NC(=O)N1 (stereo not given),"inconclusive: 13 µM [inhibitor, partial curve]",
CCOc1ccc(CCN2C(=S)N([C@@H](Cc3ccccc3)CN3CCCC3CN3C(=S)NC[C@@H]3Cc3ccccc3)C[C@@H]2Cc2ccc(O)cc2)cc1 (stereo not given in full),active: 23.1 µM,
COc1cccc(N2C(=O)c3cccnc3C2O)c1 (stereo not given),"inconclusive: 7.31 µM [inhibitor, partial curve, poor fit]",
Cc1ccc(O)c(NC(=O)c2ccco2)c1,inactive,
Cc1ccc(C(=O)NC2CCCCCCC2)cc1S(=O)(=O)N1CCOCC1,"inconclusive: 18.4 µM [inhibitor, single point]",
CC(CC(=O)c1ccccc1)=NCC(O)CN=C(C)CC(=O)c1ccccc1 (stereo not given),"inconclusive: 29.1 µM [inhibitor, single point]",
C[C@@H]1CN([C@H](C)CO)C(=O)CCCn2cc(nn2)CO[C@H]1CN(C)C(=O)Nc1ccccc1F,inactive,
CN(C)S(=O)(=O)c1cccc(NC(=O)c2cc3c(cc2Cl)N2CCCCCC2=NS3(=O)=O)c1,"inconclusive: 29.1 µM [inhibitor, single point]",
CC(C)CCNC(=O)c1c[nH]c2ccc(S(=O)(=O)Nc3cccc(C(F)(F)F)c3)cc2c1=O,"inconclusive: 20.6 µM [inhibitor, single point]",
COc1ccccc1CCNS(=O)(=O)CCNC(=O)c1ccc2c(c1)OCO2,,inconclusive: -30.8% [inhibitor]
COc1ccccc1CNC(=O)C1CCN(c2ncnc3c2nc2n3CCCCC2)CC1,inactive and active: 23.1 µM,
CCCCn1c(SCC(=O)c2ccc(OC)cc2OC)nc2cc(S(N)(=O)=O)ccc21,"inconclusive: 23.1 µM [inhibitor, single point]",
Cc1ccc(-c2cc(-c3ccccc3)nc(N(C)N)n2)cc1,"inconclusive: 29.1 µM [inhibitor, single point]",
C=CCSc1nnc(NC(=O)CSCc2c(C)noc2C)s1,inactive,

SMILES,Potency,"activity change, negative = growth inhibition"
COc1cc(OC)c(NC(=O)CS(=O)(=O)Cc2nc(-c3ccc(C)cc3)oc2C)cc1Cl,"inconclusive: 16.4 µM [inhibitor, single point]",
CCN(Cc1ccccc1)C(=O)c1ccc(N(C)S(=O)(=O)c2ccc(C)cc2)cc1,active: 14.6 µM,
COC(=O)C1C(O)=C(C(C)=Nc2cccc3ccccc23)C(=O)CC1(C)C (stereo not given),"inconclusive: 25.9 µM [inhibitor, single point]",
CCOC(=O)/C(=N\Nc1ccccc1Cl)N1CCN(c2ccccc2OC)CC1,"inconclusive: 29.1 µM [inhibitor, partial curve, poor fit]",
CC(Oc1ccccc1Cl)C(=O)N(Cc1cccs1)C1CCS(=O)(=O)C1 (stereo not given),"inconclusive: 29.1 µM [inhibitor, single point]",
CS(=O)(=O)N(Cc1ccc(C(=O)NCCSCc2ccco2)cc1)c1ccccc1,"inconclusive: 29.1 µM [inhibitor, single point]",
CCOC(=O)/C=C1\SCC(=O)N1CC(=O)Nc1ccc(C(C)C)cc1,,inconclusive: -30.7% [inhibitor]
COc1ccc(OC)c(C2C(C(C)=O)=C(O)C(=O)N2Cc2cccnc2)c1 (stereo not given),inactive,
COc1ccccc1/C=C/c1ccc2ccccc2n1,active: 15.8 µM,
COc1ccc(CCNS(=O)(=O)c2cc3c4c(c2)CC(=O)N4CCC3)cc1,inactive,
COc1ccc(CNC(=O)C(C)NCc2ccccc2Cl)cc1 (stereo not given),inactive,
CCCCNC(=O)C[C@@H]1C[C@@]2(C(=O)OC)CC(C)(C)CC=C2N(Cc2cccc3ccccc23)C1=O,"inconclusive: 29.1 µM [inhibitor, single point]",
COc1ccc(-c2nn(-c3ccccc3)cc2/C=C/C(=O)N2CCOCC2)cc1OC,"inconclusive: 6.51 µM [inhibitor, single point]",
CCOC(=O)N1CCC(NC(=O)c2ccc(CS(=O)(=O)c3c(Cl)cccc3Cl)o2)CC1,"inconclusive: 29.1 µM [inhibitor, single point]",
Cc1cc(C)nc(-n2nc(C)c(C3(O)C(=O)Nc4ccccc43)c2N)n1 (stereo not given),"inconclusive: 32.6 µM [inhibitor, single point]",
COc1cc(Cl)c(C)cc1N1C(=O)CN(Cc2ccccc2)C1=S,"inconclusive: 25.9 µM [inhibitor, partial curve]",
CC(=O)c1cccc(NC(=O)C2CCCN(S(=O)(=O)c3ccc(F)cc3)C2)c1 (stereo not given),"inconclusive: 23.1 µM [inhibitor, partial curve, poor fit]",
COc1ccccc1NS(=O)(=O)c1cc(NC(=O)c2cccs2)ccc1N1CCCC1,active: 9.2 µM,
C=CCn1c(SCc2csc(-c3ccc(C)cc3)n2)nnc1-c1ccccc1OC,active: 18.4 µM,
CCOC(=O)NN=C1c2ccccc2-c2ccccc21,"inconclusive: 29.1 µM [inhibitor, single point]",
Cc1noc(-c2ccc(N3CCCCC3C)c([N+](=O)[O-])c2)n1 (stereo not given),inactive,
COc1ccc(CC2(CO)CCN(Cc3cnn(-c4ccc(F)cc4)c3)CC2)cc1,"inconclusive: 10.3 µM [inhibitor, partial curve]",
